Laboratory results reported in PubChem BioAssay AID1458 (National Center for Advancing Translational Sciences (NCATS), 2008).
Screen size: about 210,000 compounds; about 5,900 (2.8%) were called active. Inconclusive results, whose numbers are uncertain, are shown with a selection of clear calls. The call rests on the fitted dose curve; in most records, active means well fitted activation curve with a large enough effect; inconclusive means small, poorly fitted or top-dose-only effect; inactive means no such curve, though single readings can be large or run the other way. Where the call is inconclusive, the potency comes from a doubtful curve fit.

Assay: qHTS Assay for Enhancers of SMN2 Splice Variant Expression; further: nearly all actives have a fitted effect of over 55% in size; on activity change, positive = activation: % of control where 0% means no effect
Details: HEK293 SMN2-luciferase splicing reporter, luminescence, 30-36 h; activity change, positive = activation: at 46.1 µM (top of the series)
In short: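 HEK293 cells carry an SMN2 […]–luciferase reporter in which exon 7 inclusion puts luciferase in frame. Cells were plated 10-12 h before compound addition, then incubated 30-36 h at 37C. ONE-Glo luminescence was read; sodium butyrate at 4.5 mM final served as control.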
Potency means the concentration at half of the fitted maximal effect; tags describe the fitted curve by direction and shape.

Row | SMILES | Potency | activity change, positive = activation
1 | CCOc1ccccc1Nc1ccc(C(=O)O)cc1NC(C)=O | inconclusive: 0.02 µM [activator, full curve, poor fit] | –
2 | CCC(Sc1nnnn1C)C(=O)Nc1ccc(C(C)=O)cc1 (centres undefined) | inconclusive: 10 µM [activator, partial curve, poor fit] | –
3 | CC(/C=C/c1ccc(N(C)C)cc1)=N\N=C(/N)SC1CC(=O)N(c2ccc(C(=O)O)cc2)C1=O (centres undefined) | inconclusive: 7.94 µM [activator, partial curve, poor fit] | –
4 | Cc1ccccc1-c1noc(-c2ccccc2F)n1 | inconclusive: 20 µM [activator, single point] | –
5 | COC(=O)c1ccc(NC(=O)Nc2ccc(F)cc2)cc1 | inactive | –
6 | CCCNC(=O)CN(C1CCCCC1)S(C)(=O)=O | inactive | –
7 | CN(C)N1C(N)=C(C#N)C(c2cccnc2)C2=C1CCCC2=O (centres undefined) | inconclusive: 0.0035 µM [activator, full curve, poor fit] | –
8 | Cc1cc(NC(=O)c2ccc(S(=O)(=O)N(C)C)cc2)no1 | inactive | –
9 | S=C(Nc1ccc2c(c1)OCCO2)Nc1ccc2c(c1)OCO2 | inconclusive: 8.91 µM [activator, partial curve] | –
10 | COc1cccc(C2(c3cccc(OC)c3)CC2C(=O)Nc2ccc(F)cc2)c1 (centres undefined) | inconclusive: 2.82 µM [activator, partial curve, poor fit] | –
11 | O=C(NNC1=NCCCCC1)Nc1cccc(Cl)c1 | active: 22.4 µM | –
12 | N#Cc1c(N2C(=O)C3C4C=CC(C4)C3C2=O)sc2c1CCC2 (centres undefined) | inconclusive: 2 µM [activator, partial curve, poor fit] | –
13 | Cc1ccc(NC(=O)Cc2noc3ccccc23)cc1 | inconclusive: 17.8 µM [activator, single point] | –
14 | O=C(/C=C/c1ccco1)NC(=S)Nc1ccc(N2CCOCC2)c(Cl)c1 | inconclusive: 2 µM [activator, partial curve, poor fit] | –
15 | O=C(Nc1ccc2c(c1)OCCO2)c1cncc(Br)c1 | active: 10 µM | –
16 | COc1ccc(Oc2nnc(C)c3ccccc23)cc1 | inconclusive: 31.6 µM [activator, single point] | –
17 | Cc1cc(C(C)(C)C)oc1C(=O)N(CC(=O)NC1CCCC1)Cc1ccccc1Cl | inactive | –
18 | COc1ccc(-c2cc(C(F)(F)F)nc(S(=O)(=O)CCCC(=O)Nc3cc(C)on3)n2)cc1OC | inconclusive: 15.8 µM [activator, single point] | –
19 | O=C(N/N=C/c1cccc(OC(=O)N2CCOCC2)c1)c1cccs1 | inactive | –
20 | Cn1nc(-c2ccccc2)c(-c2ccccc2)c(C(=O)Nc2ccccc2C(N)=O)c1=O | inactive | –
21 | Cc1cnc(CNc2nc(-c3ccc4c(c3)OCO4)nc3ccccc23)cn1 | inconclusive: 31.6 µM [activator, single point] | –
22 | CN(C)c1ccc(-c2nc3ccc(Cl)cn3c2Nc2ccc3c(c2)OCCO3)cc1 | inactive | –
23 | Cc1cc(=O)n(Cc2ccc(OC(C)C)cc2)c(=S)[nH]1 | inactive | –
24 | C=CCn1cnc2c(c1=O)c1nc3ccccc3nc1n2/N=C/c1cc(OC)c(OC)c(OC)c1 | inactive | –
25 | Cn1c(=O)[nH]c(=O)c2c1nc(Br)n2CCSc1nc2ccccc2o1 | inconclusive: 0.224 µM [activator, full curve, poor fit] | –

Row | SMILES | Potency | activity change, positive = activation
26 | CN(C)c1cccc(C(=O)Nc2ccc(N3CCOCC3)cc2)c1 | inconclusive: 2.82 µM [activator, full curve] | –
27 | O=[N+]([O-])c1cccc(C2=NC(c3ccccc3)CO2)c1 (centres undefined) | inactive | –
28 | O=C(CCc1nc2ccccc2c(=O)[nH]1)Nc1ccc(F)cc1 | inconclusive: 2 µM [activator, partial curve, poor fit] | –
29 | Cn1ccnc1SCc1cn2cc(Br)ccc2n1 | inconclusive: 2 µM [activator, partial curve] | –
30 | CCOc1ccc(-c2nnc(SCC(=O)N3CCOCC3)o2)cc1 | inconclusive: 31.6 µM [activator, single point] | –
31 | N#CC(=C1CCCC1)c1nc(-c2cc3ccccc3oc2=O)cs1 | inconclusive: 11.2 µM [activator, partial curve, poor fit] | –
32 | O=C(NCCO)/C(=C\c1ccco1)NC(=O)c1cccs1 | inconclusive: 3.16 µM [activator, partial curve, poor fit] | –
33 | O=C1C=C(NNC(=O)c2ccccc2Br)CCC1 | inconclusive: 1.78 µM [activator, partial curve, poor fit] | –
34 | CCOc1cc(C(c2c(C)[nH][nH]c2=O)c2c(C)[nH][nH]c2=O)ccc1OS(=O)(=O)c1ccccc1 | inconclusive: 0.0316 µM [activator, full curve, poor fit] | –
35 | O=C(Nc1nc2ccccc2[nH]1)C1CCCC1 | active: 11.2 µM | –
36 | CN1CCN(/N=C/c2ccc(-c3ccccc3)cc2)CC1 | inconclusive: 22.4 µM [activator, single point] | –
37 | Oc1ccccc1-c1cc(-c2ccc3c(c2)OCCO3)n[nH]1 | active: 3.16 µM | –
38 | COc1ccc(C(OC(=O)c2ccco2)C(=O)NCc2ccco2)cc1 (centres undefined) | inactive | –
39 | COc1cccc(C(=O)NNC(=S)NC2CCCCC2)c1 | inconclusive: 0.708 µM [activator, partial curve] | –
40 | O=C(CSc1nnc2ccc3ccccc3n12)N1CCOCC1 | – | inconclusive: 39.1% [activator]
41 | O=C(NCC1COc2ccccc2O1)c1ccccc1 (centres undefined) | active: 12.6 µM | –
42 | c1ccc2nc(SCc3cn4ccccc4n3)cnc2c1 | inconclusive: 4.47 µM [activator, full curve] | –
43 | CC(c1ccccn1)N(CCN(C)C)C(=S)Nc1ccccc1F (centres undefined) | inconclusive: 3.16 µM [activator, full curve, poor fit] | –
44 | C/C(=N\Nc1cccc2cccnc12)c1ccc[nH]1 | active: 11.2 µM | –
45 | NC(=O)CSc1ccc(Br)cc1 | inconclusive: 0.355 µM [activator, full curve, poor fit] | –
46 | COc1ccc(-c2nc(-c3ccccc3)no2)c(OC)c1 | active: 0.447 µM | –
47 | CCC(=O)c1ccc(OCC(O)Cn2nnc3ccccc32)cc1 (centres undefined) | inconclusive: 35.5 µM [activator, single point] | –
48 | CCOC(=O)c1c(NC(=O)CSc2nnc(-c3ccco3)o2)sc(C)c1C | inconclusive: 1.12 µM [activator, full curve] | –
49 | COc1ccc2[nH]c(=O)cc(C(=O)O)c2c1 | inactive | –
50 | Cc1cc(C(=O)Nc2cccc(C(=O)O)c2)oc1C | active: 1.58 µM | –

Row | SMILES | Potency | activity change, positive = activation
51 | CN1CCC/C1=C/C=C1\SC(=S)NC1=O | inconclusive: 31.6 µM [activator, single point] | –
52 | Cc1ccc(C)c(NC(=S)NCC(c2ccccc2)N(C)C)c1 (centres undefined) | inconclusive: 5.62 µM [activator, partial curve] | –
53 | Cc1nn(-c2ccccc2)c2c1C(=O)N(c1ccccc1)C(=O)C(C)(C)C2 | inconclusive: 0.0891 µM [activator, full curve, poor fit] | –
54 | Cn1c(Cc2ccccc2)nnc1SCC(=O)Nc1ccc2c(c1)OCO2 | inactive | –
55 | COc1cc(OC)cc(C(=O)Nc2cccc(C(C)=O)c2)c1 | inactive | –
56 | CC(=O)n1nc(-c2ccccc2)nc1NCc1ccc(N(C)C)cc1 | inconclusive: 22.4 µM [activator, single point] | –
57 | Cc1c(Cc2ccccc2)c(=O)oc2c(O)c(O)ccc12 | inconclusive: 35.5 µM [activator, single point] | –
58 | Nc1nc(Nc2ccc(Cl)cc2Cl)nc(C(F)(F)F)n1 | inconclusive: 8.91 µM [activator, partial curve, poor fit] | –
59 | COc1cccc(CNC(=O)c2n[nH]c3ccccc23)c1 | inconclusive: 31.6 µM [activator, single point] | –
60 | Cc1ccc(C2(CCNS(=O)(=O)c3ccc(C)cc3)CCOC(C(C)C)C2)cc1 (centres undefined) | inconclusive: 5.62 µM [activator, single point] | –
61 | O=C(CSc1ccccn1)c1ccc2c(c1)OCO2 | active: 11.2 µM | –
62 | CC1=NN(c2ccccc2)C(=O)/C1=C/c1ccc[nH]1 | active: 10 µM | –
63 | COc1ccccc1NC(=S)N(Cc1ccco1)Cc1cc2cc(C)c(C)cc2[nH]c1=O | inactive | –
64 | COc1cc(/C=N/N=C(/C(=O)c2ccccc2)c2ccccc2)cc(OC)c1O | inactive | –
65 | O=C(/C=C/c1ccccc1Cl)Nc1ccncc1 | inactive | –
66 | Cc1cccc(C)c1NC(=O)CSCC(=O)c1ccc(O)c(O)c1 | inconclusive: 35.5 µM [activator, single point] | –
67 | CCCCn1nc2cc(C(=O)NCCc3cccs3)ccc2c1OCC | inactive | –
68 | Cc1cc2oc(=O)cc(COC(=O)c3n[nH]c4ccccc34)c2cc1C | inconclusive: 7.08 µM [activator, partial curve] | –
69 | CCc1nc2oc3cc(OC)ccc3c(=O)c2c(=O)n1-c1ccccc1 | active: 25.1 µM | –
70 | S=C(Nc1ccc(Cl)cc1)N1CCCC1 | inconclusive: 11.2 µM [activator, partial curve] | –
71 | COC(=O)[C@@]1(Cc2ccc(OC)cc2)[C@H]2c3cc(C(=O)N(C)C)n(Cc4ccc(S(C)(=O)=O)cc4)c3C[C@H]2CN1C(=O)c1ccccc1 | inactive | –
72 | N#Cc1ccsc1NC(=O)COC(=O)c1ccc2ccccc2c1 | inconclusive: 17.8 µM [activator, partial curve] | –
73 | Cc1ccc(NC(=O)Nc2cccs2)nc1 | inconclusive: 14.1 µM [activator, partial curve, poor fit] | –
74 | CCOC(=O)C1CCN(S(=O)(=O)c2c(C)[nH]c(=O)[nH]c2=O)CC1 | inconclusive: 11.2 µM [activator, partial curve, poor fit] | –
